# Where a name gives a salt, the structure may show the parent alone. ± gives the standard deviation of the averaged measurements. Whole data set: some 1,900 compounds, median “normalised cell viability (NPI; 0 = phenylarsine oxide control, 1 = DMSO control)” near 1, cut for the lowest 2% near 0.039. This is one part of the list.
# Tested on: NCI-H1944
# Assay: normalised cell viability (NPI; 0 = phenylarsine oxide control, 1 = DMSO control) (fraction of DMSO control); NCI-H1944 is a non-small cell lung cancer line; higher = more viable cells (less compound toxicity)
# Conditions: 6 days
# [1] = glucocorticoid arm: hydrocortisone 2.75 uM co-treatment, compound 1 µM
# [2] = glucocorticoid arm: hydrocortisone 2.75 uM co-treatment, compound 5 µM
# [3] = glucocorticoid arm: hydrocortisone 2.75 uM pre-treated 2 days and continued, compound 1 µM
# [4] = glucocorticoid arm: hydrocortisone 2.75 uM pre-treated 2 days and continued, compound 5 µM
# [5] = glucocorticoid arm: vehicle, compound 1 µM
# [6] = glucocorticoid arm: vehicle, compound 5 µM
# 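Further: CTB read-out in 384-well plates, mean of triplicate wells, normalised per plate against 1 µM phenylarsine oxide and 0.1% DMSO, compounds added 24 h after seeding.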
smiles,measurement,setting,value
Cn1cnc2c(NC3CCCC3)ncnc21 [N6-Cyclopentyl-9-methyladenine],normalised cell viability,[1],1.006 ± 0.0063
same,normalised cell viability,[2],1.03 ± 0.02
same,normalised cell viability,[3],1.023 ± 0.0058
same,normalised cell viability,[4],1.1 ± 0.081
same,normalised cell viability,[5],1.023 ± 0.0058
same,normalised cell viability,[6],0.902 ± 0.22
Cc1cc(CS(=O)(=O)c2ccccc2)cc(OCc2ccc(CN3CCC[C@@H]3CO)cc2)c1,normalised cell viability,[1],0.979 ± 0.014
same,normalised cell viability,[2],1.02 ± 0.012
same,normalised cell viability,[3],0.984 ± 0.019
same,normalised cell viability,[4],1.02 ± 0.024
same,normalised cell viability,[5],1.008 ± 0.0084
same,normalised cell viability,[6],1.01 ± 0.0063
CCc1cc(/C(C)=N/OCc2ccc(C3CCCCC3)c(C(F)(F)F)c2)ccc1CN1CC(C(=O)O)C1 [BAF312 (Siponimod)],normalised cell viability,[1],1.013 ± 0.0058
same,normalised cell viability,[2],1.007 ± 0.0058
same,normalised cell viability,[3],1.02 ± 0.015
same,normalised cell viability,[4],1.01 ± 0.013
same,normalised cell viability,[5],1.001 ± 0.0081
same,normalised cell viability,[6],0.997 ± 0.012
Cc1cc(N2CCOCC2)cc2[nH]c(-c3c(NCC(O)c4cccc(Cl)c4)cc[nH]c3=O)nc12 (stereo not drawn),normalised cell viability,[1],0.277 ± 0.0085
same,normalised cell viability,[2],0.205 ± 0.011
same,normalised cell viability,[3],0.3733 ± 0.0021
same,normalised cell viability,[4],0.267 ± 0.0095
same,normalised cell viability,[5],0.753 ± 0.051
same,normalised cell viability,[6],0.263 ± 0.036
Clc1ccccc1C(c1ccccc1)(c1ccccc1)n1ccnc1 [Clotrimazole],normalised cell viability,[1],1 ± 0.027
same,normalised cell viability,[2],0.975 ± 0.015
same,normalised cell viability,[3],1.01 ± 0.012
same,normalised cell viability,[4],0.9775 ± 0.0064
same,normalised cell viability,[5],1.01
same,normalised cell viability,[6],1.017 ± 0.0058
CN1CCC[C@H]1c1cccnc1 [(-)-Nicotine hydrogen tartrate salt],normalised cell viability,[1],1.007 ± 0.0058
same,normalised cell viability,[2],1 ± 0.02
same,normalised cell viability,[3],1 ± 0.01
same,normalised cell viability,[4],0.972 ± 0.038
same,normalised cell viability,[5],1.002 ± 0.0068
same,normalised cell viability,[6],1.01 ± 0.011
CCCC(C(=O)OCCN(CC)CC)(c1ccccc1)c1ccccc1 [SKF-525A hydrochloride],normalised cell viability,[1],0.96 ± 0.012
same,normalised cell viability,[2],0.826 ± 0.078
same,normalised cell viability,[3],0.999 ± 0.011
same,normalised cell viability,[4],0.984 ± 0.031
same,normalised cell viability,[5],0.98 ± 0.004
same,normalised cell viability,[6],0.979 ± 0.02
CO[C@H]1C(=O)[C@]2(C)[C@@H](OC)C[C@H]3OC[C@@]3(OC(C)=O)[C@H]2[C@H](OC(=O)c2ccccc2)[C@]2(O)C[C@H](OC(=O)[C@H](O)[C@@H](NC(=O)OC(C)(C)C)c3ccccc3)C(C)=C1C2(C)C [Cabazitaxel],normalised cell viability,[1],0.191 ± 0.012
same,normalised cell viability,[2],1.05 ± 0.021
same,normalised cell viability,[3],0.468 ± 0.0065
same,normalised cell viability,[4],1.05 ± 0.015
same,normalised cell viability,[5],0.0505 ± 0.01
same,normalised cell viability,[6],1.007 ± 0.0058
COc1cc(CC(=O)O)ccc1O [4-Hydroxy-3-methoxyphenylacetic acid],normalised cell viability,[1],1.007 ± 0.0058
same,normalised cell viability,[2],1.01 ± 0.014
same,normalised cell viability,[3],1.01 ± 0.01
same,normalised cell viability,[4],1.02
same,normalised cell viability,[5],1.01 ± 0.01
same,normalised cell viability,[6],1.01
CCN1/C(=C/C(C)=O)Sc2ccc(OC)cc21,normalised cell viability,[1],1.002 ± 0.0076
same,normalised cell viability,[2],0.895 ± 0.016
same,normalised cell viability,[3],1.013 ± 0.0058
same,normalised cell viability,[4],0.994 ± 0.066
same,normalised cell viability,[5],0.9943 ± 0.0025
same,normalised cell viability,[6],0.997 ± 0.021
"CN(C)C(=O)N=NC(=O)N(C)C [N,N,N',N'-Tetramethylazodicarboxamide]",normalised cell viability,[1],0.9907 ± 0.0011
same,normalised cell viability,[2],0.9917 ± 0.0085
same,normalised cell viability,[3],0.997 ± 0.0052
same,normalised cell viability,[4],0.998 ± 0.024
same,normalised cell viability,[5],0.99967 ± 0.00058
same,normalised cell viability,[6],0.99933 ± 0.00058
C[C@H]1c2cccc(O)c2C(O)=C2C(=O)[C@]3(O)C(O)=C(C(N)=O)C(=O)[C@@H](N(C)C)[C@@H]3[C@@H](O)[C@@H]21 [Doxycycline HCl],normalised cell viability,[1],0.994 ± 0.007
same,normalised cell viability,[2],0.986 ± 0.026
same,normalised cell viability,[3],0.9957 ± 0.0031
same,normalised cell viability,[4],0.99 ± 0.006
same,normalised cell viability,[5],0.9947 ± 0.0025
same,normalised cell viability,[6],1 ± 0.015
C=CCc1ccccc1OCC(O)CNC(C)C (stereo not drawn) [Alprenolol hydrochloride],normalised cell viability,[1],0.987 ± 0.023
same,normalised cell viability,[2],1.01 ± 0.026
same,normalised cell viability,[3],1 ± 0.018
same,normalised cell viability,[4],1.015 ± 0.0071
same,normalised cell viability,[5],1 ± 0.013
same,normalised cell viability,[6],1.003 ± 0.0061
